In PMC11791083:
These are yes or no findings as the source states them, for the method shown. In cells and extracts the contact can be indirect. Some binding calls cover weakened binding; strength is not graded here. For some assays here: Tags and fused reporters may be left off the sequences shown. Each block holds one binder with its values, some of them ahead of it.

Protein sequences, listed by entry. Tags and fused reporters are not part of them.
UniProt Q15717: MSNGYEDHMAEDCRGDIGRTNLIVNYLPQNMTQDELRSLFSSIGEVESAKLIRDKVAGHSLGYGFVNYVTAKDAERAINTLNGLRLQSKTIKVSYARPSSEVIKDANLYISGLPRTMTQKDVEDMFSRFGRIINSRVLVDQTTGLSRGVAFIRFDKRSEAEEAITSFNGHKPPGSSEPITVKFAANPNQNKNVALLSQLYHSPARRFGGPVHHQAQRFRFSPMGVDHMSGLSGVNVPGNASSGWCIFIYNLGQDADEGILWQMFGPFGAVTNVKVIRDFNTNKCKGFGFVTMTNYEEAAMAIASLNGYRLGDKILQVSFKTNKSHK

Assays:
[1] = molecular target: ELAV-like protein 1, FLAG-tagged (ELAVL1-FLAG) (human), Q15717; assay: co-IP; anti-FLAG M2 magnetic beads on lysates of HEK293FT cells transfected with ELAVL1-FLAG or WT cells; 4 °C overnight; IPs with or without RNase A (100 µg/ml, 1.5 h); elution with 3x FLAG peptide; immunoblot; details: remark: other sources report otherwise
[2] = molecular target: T1, heterogeneous nuclear ribonucleoprotein M, C-terminally GFP-tagged (hnRNPM-GFP) (human), P52272; assay: proximity ligation; Duolink PLA in fixed PMA-differentiated THP-1 cells expressing hnRNPM-GFP, ELAVL1-GFP or GFP, non-stimulated or transfected with G3-YSD-AF647 (0.5 µg/ml, 4 h); anti-GFP with anti-pTBK1-Ser172 or anti-ELAVL1; puncta per cell counted as PLA score; details: remark: other sources report otherwise
T1 chain: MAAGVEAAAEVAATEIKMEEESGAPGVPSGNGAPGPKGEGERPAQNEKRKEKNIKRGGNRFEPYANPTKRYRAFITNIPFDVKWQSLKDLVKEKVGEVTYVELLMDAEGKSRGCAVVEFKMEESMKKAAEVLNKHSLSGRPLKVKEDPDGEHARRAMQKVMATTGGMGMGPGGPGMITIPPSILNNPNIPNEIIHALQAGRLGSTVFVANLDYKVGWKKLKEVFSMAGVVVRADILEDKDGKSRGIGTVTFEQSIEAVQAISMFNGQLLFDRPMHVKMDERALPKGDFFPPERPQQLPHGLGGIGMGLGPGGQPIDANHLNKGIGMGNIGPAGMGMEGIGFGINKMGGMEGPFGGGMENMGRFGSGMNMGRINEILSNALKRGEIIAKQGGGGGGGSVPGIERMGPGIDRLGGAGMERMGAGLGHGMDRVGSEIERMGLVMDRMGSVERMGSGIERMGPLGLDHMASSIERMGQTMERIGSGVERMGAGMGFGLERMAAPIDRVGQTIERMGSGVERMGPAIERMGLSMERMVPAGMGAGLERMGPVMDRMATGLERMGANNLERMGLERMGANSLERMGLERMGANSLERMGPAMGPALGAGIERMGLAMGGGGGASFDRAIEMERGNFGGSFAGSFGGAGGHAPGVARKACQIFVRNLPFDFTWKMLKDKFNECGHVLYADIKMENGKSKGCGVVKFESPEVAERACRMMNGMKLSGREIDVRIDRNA

[3] = molecular target: T1, heterogeneous nuclear ribonucleoprotein …; assay: co-IP; GFP-Trap magnetic agarose on lysates of THP-1 cells expressing hnRNPM-GFP or GFP, non-stimulated or pDNA-stimulated (0.1 µg/ml, 3 h); TAP lysis buffer, 4 °C overnight; IPs with or without RNase A (100 µg/ml, 1.5 h); immunoblot; details: remark: other sources report otherwise
[4] = molecular target: ELAV-like protein 1, GFP-tagged (ELAVL1-GFP) (human) (UniProt Q15717); assay: proximity ligation; Duolink PLA in fixed PMA-differentiated THP-1 cells expressing hnRNPM-GFP, ELAVL1-GFP or GFP, non-stimulated or transfected with G3-YSD-AF647 (0.5 µg/ml, 4 h); anti-GFP with anti-pTBK1-Ser172 or anti-ELAVL1; puncta per cell counted as PLA score

binding [1]: binds
B1: IκB kinase β (IKKβ), endogenous in HEK293FT, O14920 1-756 (protein)
chain: MSWSPSLTTQTCGAWEMKERLGTGGFGNVIRWHNQETGEQIAIKQCRQELSPRNRERWCLEIQIMRRLTHPNVVAARDVPEGMQNLAPNDLPLLAMEYCQGGDLRKYLNQFENCCGLREGAILTLLSDIASALRYLHENRIIHRDLKPENIVLQQGEQRLIHKIIDLGYAKELDQGSLCTSFVGTLQYLAPELLEQQKYTVTVDYWSFGTLAFECITGFRPFLPNWQPVQWHSKVRQKSEVDIVVSEDLNGTVKFSSSLPYPNNLNSVLAERLEKWLQLMLMWHPRQRGTDPTYGPNGCFKALDDILNLKLVHILNMVTGTIHTYPVTEDESLQSLKARIQQDTGIPEEDQELLQEAGLALIPDKPATQCISDGKLNEGHTLDMDLVFLFDNSKITYETQISPRPQPESVSCILQEPKRNLAFFQLRKVWGQVWHSIQTLKEDCNRLQQGQRAAMMNLLRNNSCLSKMKNSMASMSQQLKAKLDFFKTSIQIDLEKYSEQTEFGITSDKLLLAWREMEQAVELCGRENEVKLLVERMMALQTDIVDLQRSPMGRKQGGTLDDLEEQARELYRRLREKPRDQRTEGDSQEMVRLLLQAIQSFEKKVRVIYTQLSKTVVCKQKALELLPKVEEVVSLMNEDEKTVVRLQEKRQKELWNLLKIACSKVRGPVSGSPDSMNASRLSQPGQLMSQPSTASNSLPEPAKKSEELVAEAHNLCTLLENAIQDTVREQDQSFTALDWSWLQTEEEEHSCLEQAS

binding [2]: binds
binding [3]: binds
B2: TBK1 phosphorylated at Ser172 (pTBK1-Ser172), endogenous in THP-1, Q9UHD2 1-729 (protein)
chain: MQSTSNHLWLLSDILGQGATANVFRGRHKKTGDLFAIKVFNNISFLRPVDVQMREFEVLKKLNHKNIVKLFAIEEETTTRHKVLIMEFCPCGSLYTVLEEPSNAYGLPESEFLIVLRDVVGGMNHLRENGIVHRDIKPGNIMRVIGEDGQSVYKLTDFGAARELEDDEQFVSLYGTEEYLHPDMYERAVLRKDHQKKYGATVDLWSIGVTFYHAATGSLPFRPFEGPRRNKEVMYKIITGKPSGAISGVQKAENGPIDWSGDMPVSCSLSRGLQVLLTPVLANILEADQEKCWGFDQFFAETSDILHRMVIHVFSLQQMTAHKIYIHSYNTATIFHELVYKQTKIISSNQELIYEGRRLVLEPGRLAQHFPKTTEENPIFVVSREPLNTIGLIYEKISLPKVHPRYDLDGDASMAKAITGVVCYACRIASTLLLYQELMRKGIRWLIELIKDDYNETVHKKTEVVITLDFCIRNIEKTVKVYEKLMKINLEAAELGEISDIHTKLLRLSSSQGTIETSLQDIDSRLSPGGSLADAWAHQEGTHPKDRNVEKLQVLLNCMTEIYYQFKKDKAERRLAYNEEQIHKFDKQKLYYHATKAMTHFTDECVKKYEAFLNKSEEWIRKMLHLRKQLLSLTNQCFDIEEEVSKYQEYTNELQETLPQKMFTASSGIKHTMTPIYPSSNTLVEMTLGMKKLKEEMEGVVKELAENNHILERFGSLTMDGGLRNVDCL
modifications: here or on the partner: phosphoserine at 172

binding [4]: binds
B3: TBK1 phosphorylated at Ser172 (pTBK1-Ser172), endogenous in THP-1 (protein, UniProt Q9UHD2 1-729)
chain: MQSTSNHLWLLSDILGQGATANVFRGRHKKTGDLFAIKVFNNISFLRPVDVQMREFEVLKKLNHKNIVKLFAIEEETTTRHKVLIMEFCPCGSLYTVLEEPSNAYGLPESEFLIVLRDVVGGMNHLRENGIVHRDIKPGNIMRVIGEDGQSVYKLTDFGAARELEDDEQFVSLYGTEEYLHPDMYERAVLRKDHQKKYGATVDLWSIGVTFYHAATGSLPFRPFEGPRRNKEVMYKIITGKPSGAISGVQKAENGPIDWSGDMPVSCSLSRGLQVLLTPVLANILEADQEKCWGFDQFFAETSDILHRMVIHVFSLQQMTAHKIYIHSYNTATIFHELVYKQTKIISSNQELIYEGRRLVLEPGRLAQHFPKTTEENPIFVVSREPLNTIGLIYEKISLPKVHPRYDLDGDASMAKAITGVVCYACRIASTLLLYQELMRKGIRWLIELIKDDYNETVHKKTEVVITLDFCIRNIEKTVKVYEKLMKINLEAAELGEISDIHTKLLRLSSSQGTIETSLQDIDSRLSPGGSLADAWAHQEGTHPKDRNVEKLQVLLNCMTEIYYQFKKDKAERRLAYNEEQIHKFDKQKLYYHATKAMTHFTDECVKKYEAFLNKSEEWIRKMLHLRKQLLSLTNQCFDIEEEVSKYQEYTNELQETLPQKMFTASSGIKHTMTPIYPSSNTLVEMTLGMKKLKEEMEGVVKELAENNHILERFGSLTMDGGLRNVDCL
modifications: phosphoserine at 172

binding [1]: binds
B4: IκB kinase ε (IKKε), endogenous in HEK293FT, Q14164 1-716 (protein)
chain: MQSTANYLWHTDDLLGQGATASVYKARNKKSGELVAVKVFNTTSYLRPREVQVREFEVLRKLNHQNIVKLFAVEETGGSRQKVLVMEYCSSGSLLSVLESPENAFGLPEDEFLVVLRCVVAGMNHLRENGIVHRDIKPGNIMRLVGEEGQSIYKLTDFGAARELDDDEKFVSVYGTEEYLHPDMYERAVLRKPQQKAFGVTVDLWSIGVTLYHAATGSLPFIPFGGPRRNKEIMYRITTEKPAGAIAGAQRRENGPLEWSYTLPITCQLSLGLQSQLVPILANILEVEQAKCWGFDQFFAETSDILQRVVVHVFSLSQAVLHHIYIHAHNTIAIFQEAVHKQTSVAPRHQEYLFEGHLCVLEPSVSAQHIAHTTASSPLTLFSTAIPKGLAFRDPALDVPKFVPKVDLQADYNTAKGVLGAGYQALRLARALLDGQELMFRGLHWVMEVLQATCRRTLEVARTSLLYLSSSLGTERFSSVAGTPEIQELKAAAELRSRLRTLAEVLSRCSQNITETQESLSSLNRELVKSRDQVHEDRSIQQIQCCLDKMNFIYKQFKKSRMRPGLGYNEEQIHKLDKVNFSHLAKRLLQVFQEECVQKYQASLVTHGKRMRVVHETRNHLRLVGCSVAACNTEAQGVQESLSKLLEELSHQLLQDRAKGAQASPPPIAPYPSPTRKDLLLHMQELCEGMKLLASDLLDNNRIIERLNRVPAPPDV
